Source: the supplement of paper PMC12423691
This is one part of the list. Binding of human transcription factors and regulators to the viral nucleoprotein by AlphaScreen, crude cell-free proteins, amounts not normalised, one pass. Fold of the Venus control; higher = more signal. No active / inactive call. Single-pass screen; sequences are the whole Swiss-Prot entries looked up by name.

B1: PA2G4, Q9UQ80 (protein)
chain: MSGEDEQQEQTIAEDLVVTKYKMGGDIANRVLRSLVEASSSGVSVLSLCEKGDAMIMEETGKIFKKEKEMKKGIAFPTSISVNNCVCHFSPLKSDQDYILKEGDLVKIDLGVHVDGFIANVAHTFVVDVAQGTQVTGRKADVIKAAHLCAEAALRLVKPGNQNTQVTEAWNKVAHSFNCTPIEGMLSHQLKQHVIDGEKTIIQNPTDQQKKDHEKAEFEVHEVYAVDVLVSSGEGKAKDAGQRTTIYKRDPSKQYGLKMKTSRAFFSEVERRFDAMPFTLRAFEDEKKARMGVVECAKHELLQPFNVLYEKEGEFVAQFKFTVLLMPNGPMRITSGPFEPDLYKSEMEVQDAELKALLQSSASRKTQKKKKKKASKTAENATSGETLEENEAGD
B2: NFKBID, Q8NI38 (protein)
chain: MEAGPWRVSAPPSGPPQFPAVVPGPSLEVARAHMLALGPQQLLAQDEEGDTLLHLFAARGLRWAAYAAAEVLQVYRRLDIREHKGKTPLLVAAAANQPLIVEDLLNLGAEPNAADHQGRSVLHVAATYGLPGVLLAVLNSGVQVDLEARDFEGLTPLHTAILALNVAMRPSDLCPRVLSTQARDRLDCVHMLLQMGANHTSQEIKSNKTVLHLAVQAANPTLVQLLLELPRGDLRTFVNMKAHGNTALHMAAALPPGPAQEAIVRHLLAAGADPTLRNLENEQPVHLLRPGPGPEGLRQLLKRSRVAPPGLSS
B3: MTA3, Q9BTC8 (protein)
chain: MAANMYRVGDYVYFENSSSNPYLIRRIEELNKTASGNVEAKVVCFYRRRDISNTLIMLADKHAKEIEEESETTVEADLTDKQKHQLKHRELFLSRQYESLPATHIRGKCSVALLNETESVLSYLDKEDTFFYSLVYDPSLKTLLADKGEIRVGPRYQADIPEMLLEGESDEREQSKLEVKVWDPNSPLTDRQIDQFLVVARAVGTFARALDCSSSVRQPSLHMSAAAASRDITLFHAMDTLYRHSYDLSSAISVLVPLGGPVLCRDEMEEWSASEASLFEEALEKYGKDFNDIRQDFLPWKSLTSIIEYYYMWKTTDRYVQQKRLKAAEAESKLKQVYIPTYSKPNPNQISTSNGKPGAVNGAVGTTFQPQNPLLGRACESCYATQSHQWYSWGPPNMQCRLCAICWLYWKKYGGLKMPTQSEEEKLSPSPTTEDPRVRSHVSRQAMQGMPVRNTGSPKSAVKTRQAFFLHTTYFTKFARQVCKNTLRLRQAARRPFVAINYAAIRAEYADRHAELSGSPLKSKSTRKPLACIIGYLEIHPAKKPNVIRSTPSLQTPTTKRMLTTPNHTSLSILGKRNYSHHNGLDELTCCVSD
B4: HSF4, Q9ULV5 (protein)
chain: MQEAPAALPTEPGPSPVPAFLGKLWALVGDPGTDHLIRWSPSGTSFLVSDQSRFAKEVLPQYFKHSNMASFVRQLNMYGFRKVVSIEQGGLLRPERDHVEFQHPSFVRGREQLLERVRRKVPALRGDDGRWRPEDLGRLLGEVQALRGVQESTEARLRELRQQNEILWREVVTLRQSHGQQHRVIGKLIQCLFGPLQAGPSNAGGKRKLSLMLDEGSSCPTPAKFNTCPLPGALLQDPYFIQSPLPETNLGLSPHRARGPIISDIPEDSPSPEGTRLSPSSDGRREKGLALLKEEPASPGGDGEAGLALAPNECDFCVTAPPPLPVAVVQAILEGKGSFSPEGPRNAQQPEPGDPREIPDRGPLGLESGDRSPESLLPPMLLQPPQESVEPAGPLDVLGPSLQGREWTLMDLDMELSLMQPLVPERGEPELAVKGLNSPSPGKDPTLGAPLLLDVQAALGGPALGLPGALTIYSTPESRTASYLGPEASPSP
B5: SIN3A, Q96ST3 (protein)
chain: MKRRLDDQESPVYAAQQRRIPGSTEAFPHQHRVLAPAPPVYEAVSETMQSATGIQYSVTPSYQVSAMPQSSGSHGPAIAAVHSSHHHPTAVQPHGGQVVQSHAHPAPPVAPVQGQQQFQRLKVEDALSYLDQVKLQFGSQPQVYNDFLDIMKEFKSQSIDTPGVISRVSQLFKGHPDLIMGFNTFLPPGYKIEVQTNDMVNVTTPGQVHQIPTHGIQPQPQPPPQHPSQPSAQSAPAPAQPAPQPPPAKVSKPSQLQAHTPASQQTPPLPPYASPRSPPVQPHTPVTISLGTAPSLQNNQPVEFNHAINYVNKIKNRFQGQPDIYKAFLEILHTYQKEQRNAKEAGGNYTPALTEQEVYAQVARLFKNQEDLLSEFGQFLPDANSSVLLSKTTAEKVDSVRNDHGGTVKKPQLNNKPQRPSQNGCQIRRHPTGTTPPVKKKPKLLNLKDSSMADASKHGGGTESLFFDKVRKALRSAEAYENFLRCLVIFNQEVISRAELVQLVSPFLGKFPELFNWFKNFLGYKESVHLETYPKERATEGIAMEIDYASCKRLGSSYRALPKSYQQPKCTGRTPLCKEVLNDTWVSFPSWSEDSTFVSSKKTQYEEHIYRCEDERFELDVVLETNLATIRVLEAIQKKLSRLSAEEQAKFRLDNTLGGTSEVIHRKALQRIYADKAADIIDGLRKNPSIAVPIVLKRLKMKEEEWREAQRGFNKVWREQNEKYYLKSLDHQGINFKQNDTKVLRSKSLLNEIESIYDERQEQATEENAGVPVGPHLSLAYEDKQILEDAAALIIHHVKRQTGIQKEDKYKIKQIMHHFIPDLLFAQRGDLSDVEEEEEEEMDVDEATGAVKKHNGVGGSPPKSKLLFSNTAAQKLRGMDEVYNLFYVNNNWYIFMRLHQILCLRLLRICSQAERQIEEENREREWEREVLGIKRDKSDSPAIQLRLKEPMDVDVEDYYPAFLDMVRSLLDGNIDSSQYEDSLREMFTIHAYIAFTMDKLIQSIVRQLQHIVSDEICVQVTDLYLAENNNGATGGQLNTQNSRSLLESTYQRKAEQLMSDENCFKLMFIQSQGQVQLTIELLDTEEENSDDPVEAERWSDYVERYMNSDTTSPELREHLAQKPVFLPRNLRRIRKCQRGREQQEKEGKEGNSKKTMENVDSLDKLECRFKLNSYKMVYVIKSEDYMYRRTALLRAHQSHERVSKRLHQRFQAWVDKWTKEHVPREMAAETSKWLMGEGLEGLVPCTTTCDTETLHFVSINKYRVKYGTVFKAP
B6: NFYB, P25208 (protein)
chain: MTMDGDSSTTDASQLGISADYIGGSHYVIQPHDDTEDSMNDHEDTNGSKESFREQDIYLPIANVARIMKNAIPQTGKIAKDAKECVQECVSEFISFITSEASERCHQEKRKTINGEDILFAMSTLGFDSYVEPLKLYLQKFREAMKGEKGIGGAVTATDGLSEELTEEAFTNQLPAGLITTDGQQQNVMVYTTSYQQISGVQQIQFS
B7: CEBPA, P49715 (protein)
chain: MESADFYEAEPRPPMSSHLQSPPHAPSSAAFGFPRGAGPAQPPAPPAAPEPLGGICEHETSIDISAYIDPAAFNDEFLADLFQHSRQQEKAKAAVGPTGGGGGGDFDYPGAPAGPGGAVMPGGAHGPPPGYGCAAAGYLDGRLEPLYERVGAPALRPLVIKQEPREEDEAKQLALAGLFPYQPPPPPPPSHPHPHPPPAHLAAPHLQFQIAHCGQTTMHLQPGHPTPPPTPVPSPHPAPALGAAGLPGPGSALKGLGAAHPDLRASGGSGAGKAKKSVDKNSNEYRVRRERNNIAVRKSRDKAKQRNVETQQKVLELTSDNDRLRKRVEQLSRELDTLRGIFRQLPESSLVKAMGNCA
B8: DDRGK1, Q96HY6 (protein)
chain: MVAPVWYLVAAALLVGFILFLTRSRGRAASAGQEPLHNEELAGAGRVAQPGPLEPEEPRAGGRPRRRRDLGSRLQAQRRAQRVAWAEADENEEEAVILAQEEEGVEKPAETHLSGKIGAKKLRKLEEKQARKAQREAEEAEREERKRLESQREAEWKKEEERLRLEEEQKEEEERKAREEQAQREHEEYLKLKEAFVVEEEGVGETMTEEQSQSFLTEFINYIKQSKVVLLEDLASQVGLRTQDTINRIQDLLAEGTITGVIDDRGKFIYITPEELAAVANFIRQRGRVSIAELAQASNSLIAWGRESPAQAPA
B9: CGGBP1, Q9UFW8 (protein)
chain: MERFVVTAPPARNRSKTALYVTPLDRVTEFGGELHEDGGKLFCTSCNVVLNHVRKSAISDHLKSKTHTKRKAEFEEQNVRKKQRPLTASLQCNSTAQTEKVSVIQDFVKMCLEANIPLEKADHPAVRAFLSRHVKNGGSIPKSDQLRRAYLPDGYENENQLLNSQDC
B10: GLI3, P10071 (protein)
chain: MEAQSHSSTTTEKKKVENSIVKCSTRTDVSEKAVASSTTSNEDESPGQTYHRERRNAITMQPQNVQGLSKVSEEPSTSSDERASLIKKEIHGSLPHVAEPSVPYRGTVFAMDPRNGYMEPHYHPPHLFPAFHPPVPIDARHHEGRYHYDPSPIPPLHMTSALSSSPTYPDLPFIRISPHRNPTAASESPFSPPHPYINPYMDYIRSLHSSPSLSMISATRGLSPTDAPHAGVSPAEYYHQMALLTGQRSPYADIIPSAATAGTGAIHMEYLHAMDSTRFSSPRLSARPSRKRTLSISPLSDHSFDLQTMIRTSPNSLVTILNNSRSSSSASGSYGHLSASAISPALSFTYSSAPVSLHMHQQILSRQQSLGSAFGHSPPLIHPAPTFPTQRPIPGIPTVLNPVQVSSGPSESSQNKPTSESAVSSTGDPMHNKRSKIKPDEDLPSPGARGQQEQPEGTTLVKEEGDKDESKQEPEVIYETNCHWEGCAREFDTQEQLVHHINNDHIHGEKKEFVCRWLDCSREQKPFKAQYMLVVHMRRHTGEKPHKCTFEGCTKAYSRLENLKTHLRSHTGEKPYVCEHEGCNKAFSNASDRAKHQNRTHSNEKPYVCKIPGCTKRYTDPSSLRKHVKTVHGPEAHVTKKQRGDIHPRPPPPRDSGSHSQSRSPGRPTQGALGEQQDLSNTTSKREECLQVKTVKAEKPMTSQPSPGGQSSCSSQQSPISNYSNSGLELPLTDGGSIGDLSAIDETPIMDSTISTATTALALQARRNPAGTKWMEHVKLERLKQVNGMFPRLNPILPPKAPAVSPLIGNGTQSNNTCSLGGPMTLLPGRSDLSGVDVTMLNMLNRRDSSASTISSAYLSSRRSSGISPCFSSRRSSEASQAEGRPQNVSVADSYDPISTDASRRSSEASQSDGLPSLLSLTPAQQYRLKAKYAAATGGPPPTPLPNMERMSLKTRLALLGDALEPGVALPPVHAPRRCSDGGAHGYGRRHLQPHDAPGHGVRRASDPVRTGSEGLALPRVPRFSSLSSCNPPAMATSAEKRSLVLQNYTRPEGGQSRNFHSSPCPPSITENVTLESLTMDADANLNDEDFLPDDVVQYLNSQNQAGYEQHFPSALPDDSKVPHGPGDFDAPGLPDSHAGQQFHALEQPCPEGSKTDLPIQWNEVSSGSADLSSSKLKCGPRPAVPQTRAFGFCNGMVVHPQNPLRSGPAGGYQTLGENSNPYGGPEHLMLHNSPGSGTSGNAFHEQPCKAPQYGNCLNRQPVAPGALDGACGAGIQASKLKSTPMQGSGGQLNFGLPVAPNESAGSMVNGMQNQDPVGQGYLAHQLLGDSMQHPGAGRPGQQMLGQISATSHINIYQGPESCLPGAHGMGSQPSSLAVVRGYQPCASFGGSRRQAMPRDSLALQSGQLSDTSQTCRVNGIKMEMKGQPHPLCSNLQNYSGQFYDQTVGFSQQDTKAGSFSISDASCLLQGTSAKNSELLSPGANQVTSTVDSLDSHDLEGVQIDFDAIIDDGDHSSLMSGALSPSIIQNLSHSSSRLTTPRASLPFPALSMSTTNMAIGDMSSLLTSLAEESKFLAVMQ

target: nucleoprotein N of Crimean-Congo hemorrhagic fever virus; assay: AlphaScreen luminescence signal relative to Venus negative control (fold); higher = stronger binding to CCHFV N
Description: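 AlphaScreen binding of cell-free made, FLAG-GST-tagged human transcription factors and regulators (crude translation products) to biotinylated N protein; signal as fold of the FLAG-GST-Venus control. One pass.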

Row | Binder | AlphaScreen luminescence signal
1 | B1 | 23.3
2 | B2 | 1.81
3 | B3 | 1.81
4 | B4 | 2.84
5 | B5 | 1.4
6 | B6 | 1.63
7 | B7 | 1.02
8 | B8 | 6.7
9 | B9 | 2.6
10 | B10 | 1.67
